# Source: paper PMC5700166
# This is a selection; strong and weak results do not stand in their true shares. The list includes weakly bound sequences.
# Columns and labels:
# Test in all cases: protein-binding microarray (PBM)
# Settings in all cases: PBM: ~300 nM protein, 6 mM HEPES pH 7.8, 80 mM KCl, 0.5 mM EDTA, 0.5 mM EGTA, 6% glycerol, 35 ng/ul poly-dIdC, 1% milk, 1 h, room temperature; Ap Aiptasia and Nv Nematostella (sea anemones) / Co Capsaspora / Aq Amphimedon (sponge) / Dm Drosophila / Hu human; RHD is the Rel homology domain; high values mean tight binding; most listed sequences are background and not binding sites; double strand, one strand shown
# GST-Ap-NF-kB RHD = biological target: T1, GST-Ap-NF-kB RHD (UniProt A0A913YAJ5)
# T1 sequence: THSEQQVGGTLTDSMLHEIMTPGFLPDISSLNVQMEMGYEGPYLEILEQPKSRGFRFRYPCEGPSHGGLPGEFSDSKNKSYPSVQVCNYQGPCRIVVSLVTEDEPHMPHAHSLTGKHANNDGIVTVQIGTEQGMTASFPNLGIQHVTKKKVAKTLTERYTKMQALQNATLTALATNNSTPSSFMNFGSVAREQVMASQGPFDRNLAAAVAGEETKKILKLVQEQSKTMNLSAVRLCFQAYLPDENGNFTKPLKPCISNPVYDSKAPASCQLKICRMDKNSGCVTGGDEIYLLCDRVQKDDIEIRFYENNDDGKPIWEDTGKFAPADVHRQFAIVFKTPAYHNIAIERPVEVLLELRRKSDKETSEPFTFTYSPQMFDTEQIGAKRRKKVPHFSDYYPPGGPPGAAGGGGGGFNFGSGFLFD
# [1] = biological target: T2, GST-Nv-NF-kB (Cys allele) (UniProt E5G601)
# T2 sequence: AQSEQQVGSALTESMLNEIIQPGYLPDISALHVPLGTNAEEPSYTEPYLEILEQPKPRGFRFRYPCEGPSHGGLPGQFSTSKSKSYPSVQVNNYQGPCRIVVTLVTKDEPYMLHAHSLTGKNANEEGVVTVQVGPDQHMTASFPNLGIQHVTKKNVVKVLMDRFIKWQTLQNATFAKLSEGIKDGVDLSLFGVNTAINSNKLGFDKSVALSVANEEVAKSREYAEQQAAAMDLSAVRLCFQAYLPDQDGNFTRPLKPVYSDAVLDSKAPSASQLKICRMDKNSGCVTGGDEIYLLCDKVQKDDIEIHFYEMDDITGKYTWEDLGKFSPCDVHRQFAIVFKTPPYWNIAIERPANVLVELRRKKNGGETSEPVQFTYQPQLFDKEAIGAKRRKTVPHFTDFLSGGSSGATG
# GST-Co-NF-kB = biological target: T3, GST-Co-NF-kB (UniProt F1ARL5)
# T3 sequence: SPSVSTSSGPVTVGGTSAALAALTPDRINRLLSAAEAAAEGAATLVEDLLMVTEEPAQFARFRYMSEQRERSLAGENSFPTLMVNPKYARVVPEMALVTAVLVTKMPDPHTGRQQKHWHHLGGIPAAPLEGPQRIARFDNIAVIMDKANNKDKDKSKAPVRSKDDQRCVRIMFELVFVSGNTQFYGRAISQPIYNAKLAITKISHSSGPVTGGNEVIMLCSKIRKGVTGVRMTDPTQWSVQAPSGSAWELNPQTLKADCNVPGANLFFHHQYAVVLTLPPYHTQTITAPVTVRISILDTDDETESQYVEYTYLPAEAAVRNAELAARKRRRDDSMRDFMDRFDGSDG
# GST-Dm-Relish = biological target: T4, GST-Dm-Relish (UniProt Q94527)
# T4 sequence: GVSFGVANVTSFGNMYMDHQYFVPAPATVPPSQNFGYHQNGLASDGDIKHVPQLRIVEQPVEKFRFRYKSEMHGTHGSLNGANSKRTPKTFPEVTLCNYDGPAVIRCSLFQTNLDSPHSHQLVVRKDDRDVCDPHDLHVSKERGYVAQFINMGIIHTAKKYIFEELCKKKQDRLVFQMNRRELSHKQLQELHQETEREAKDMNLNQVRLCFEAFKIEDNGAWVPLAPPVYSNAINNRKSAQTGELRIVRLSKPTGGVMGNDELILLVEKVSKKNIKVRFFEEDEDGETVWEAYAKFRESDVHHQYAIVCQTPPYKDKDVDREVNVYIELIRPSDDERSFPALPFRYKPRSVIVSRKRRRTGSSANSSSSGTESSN
# GST-Aq-NF-kB = biological target: T5, GST-Aq-NF-kB (UniProt A9Y5G7)
# T5 sequence: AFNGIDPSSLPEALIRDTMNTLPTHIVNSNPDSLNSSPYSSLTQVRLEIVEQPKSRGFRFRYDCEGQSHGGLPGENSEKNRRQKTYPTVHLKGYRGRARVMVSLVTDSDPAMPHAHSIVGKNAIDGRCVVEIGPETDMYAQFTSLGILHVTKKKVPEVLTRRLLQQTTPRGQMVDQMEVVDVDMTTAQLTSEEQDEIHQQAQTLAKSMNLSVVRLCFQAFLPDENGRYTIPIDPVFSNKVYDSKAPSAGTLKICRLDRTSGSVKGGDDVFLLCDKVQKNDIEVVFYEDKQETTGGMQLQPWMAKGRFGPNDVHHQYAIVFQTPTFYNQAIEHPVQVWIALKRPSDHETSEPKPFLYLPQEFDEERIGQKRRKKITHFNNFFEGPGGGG
Sequence,binding signal (GST-Ap-NF-kB RHD),binding signal [1],binding signal (GST-Co-NF-kB),binding signal (GST-Dm-Relish),binding signal (GST-Aq-NF-kB)
CCGATTAACATCAACTTTTATGCTGATGTTAATCGGGTCTTGATTCGCTTGACGCTGCTG,-0.526 z-score,-0.083 z-score,-0.304 z-score,-0.34 z-score,-0.188 z-score
CCGATTAACATCAATTTTTGCCCTGATGTTAATCGGGTCTTGATTCGCTTGACGCTGCTG,0.78 z-score,-0.109 z-score,,0.204 z-score,0.0842 z-score
CCGATTAACATCATGGGGTGTGCTGATGTTAATCGGGTCTTGATTCGCTTGACGCTGCTG,1.12 z-score,0.544 z-score,,0.773 z-score,0.859 z-score
CCGATTAACATCAGGGGAACCCCTGATGTTAATCGGGTCTTGATTCGCTTGACGCTGCTG,12.5 z-score,11.6 z-score,,10.5 z-score,10.7 z-score
CCGATTAACATCATGTCGGGTGATGATGTTAATCGGGTCTTGATTCGCTTGACGCTGCTG,0.288 z-score,-0.00993 z-score,,-0.331 z-score,0.171 z-score
CCGATTAACATCAAAAACCCCCTTGATGTTAATCGGGTCTTGATTCGCTTGACGCTGCTG,10.4 z-score,10.3 z-score,,10.9 z-score,9.31 z-score
